Test results published in PubChem BioAssay AID1508624 (National Center for Advancing Translational Sciences (NCATS), 2021).
About 120 (0.25%) of roughly 48,000 compounds were called active. Not shown: some 4% with an inconclusive outcome. Calls follow the shape of the dose curve; as a rule, active = well fitted activation curve with a large enough effect; inconclusive = small, poorly fitted or top-dose-only effect, or another doubt; inactive = no such curve, though single readings can be large or run the other way. This is one part of the list.

assay: Primary qHTS for Identification of Small Molecule Activators of Huntingtin-Antisense Promoter Activity; details: HEK293 HTT-AS promoter firefly luciferase reporter, 24 h; series mostly up to 57.5 µM; activity change, positive = activation: at the top concentration; also: nearly all actives have a fitted effect of over 55% in size
Summary of the method: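 HEK293 cells carrying firefly luciferase reporters were seeded at 2,500 per well in Opti-MEM and cultured for 24 h. They were then treated with compounds at up to 57.5 uM final for 24 h at 37 degrees C before Dual-Glo luminescence readout.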

Activity change, positive = activation, inactive:
COc1ccc(NC(=O)c2ccc3c(c2)N(Cc2cccc(Cl)c2)C(=O)c2ccccc2S3=O)cc1Cl (centres undefined) -19.5%, CC1CCN(c2nc3c(S(=O)(=O)c4ccccc4)nnn3c3ccc(Cl)cc23)CC1 2.84%, COc1cccc(Cc2nc3ccccc3nc2SCC(=O)NCCc2ccccc2)c1 -37.3%, COc1ccc(C2C=C(c3ccc(F)cc3)Nc3nc(-c4ccc(Cl)cc4)nn32)cc1 (centres undefined) -93.8%, Cc1c(C)n(Cc2ccccc2)c2ccc(C(=O)NCc3ccccc3F)cc12 -17.3%, O=C(c1cnn(-c2cccc(F)c2)c1-n1cccc1)N1CCN(c2ccccc2F)CC1 -25.5%, COc1ccccc1NC(=O)NCCCN1CCN(c2ccc(F)cc2)CC1 -8.74%, COc1ccc(-n2nc3c(N4CCC(C(=O)NCc5cccc(F)c5)CC4)nnc(C)c3c2C)cc1 -33.6%, COc1ccc(CCNC(=O)c2ccc3c(c2)sc2nc(-c4ccccc4)cn23)cc1OC 31%, CCOC(=O)c1cc(-c2ccc(OC)cc2)n(CCC(=O)NCCc2ccccc2)c1C -6.98%, Cc1ccccc1N(C)S(=O)(=O)c1nnc(NC(=O)c2ccco2)s1 -19.3%, Cc1ccc(NC(=O)C2(C)Cc3ccccc3C(=O)O2)c(C)c1 (centres undefined) -5.97%, Cc1cc(OCC(=O)NCCc2nc3ccccc3[nH]2)cc(C)c1Cl -11.1%, CCn1nc(C)c(CCN(C)C(=O)Nc2cccc(Cl)c2C)c1C -2.26%, Cc1cccc(C(=O)N2CCc3cc(CNC(=O)c4cc5ccccc5[nH]4)ccc32)c1 -4.18%, Cc1ccc(CNC(=O)C(C)n2c(=O)cc(C(F)(F)F)c3c(C)nn(C)c32)cc1 (centres undefined) -27.5%, Cc1ccc(S(=O)(=O)C(CNC(=O)c2c(F)cccc2F)c2ccco2)cc1 (centres undefined) -3.67%, Cc1cc(C)c(S(=O)(=O)NCCS(=O)(=O)N2CCN(c3ccccc3)CC2)c(C)c1 -8.45%, O=S(=O)(c1ccccc1)c1nc(-c2ccccc2Cl)oc1N1CCCCCC1 -22.3%, COc1cccc(Nc2nc3cc(C)ccc3nc2NS(=O)(=O)c2ccc(Cl)cc2)c1 -60.3%, COC(=O)c1ccccc1NC(=O)Cn1cnc2sc(C)c(S(=O)(=O)N3CCC(C)CC3)c2c1=O 0.528%, Cc1nc2ccccn2c(=O)c1NC(=O)c1cccc(F)c1 -2.02%, COc1ccc(NC(=O)/C=C\C(=O)N(c2ccc(C(C)C)cc2)C(C(=O)NCc2ccco2)c2ccc(C)cc2)cc1 (centres undefined) -45.4%, COc1ccc(Cl)cc1-n1cc(-c2ccccc2)nc1SCC(=O)Nc1ccc(C)cc1 -21.7%, O=C(NC1CCCC1)c1ccc2c(=O)n(Cc3ccccc3)c(SCc3ccccc3F)nc2c1 -13.7%, COc1ccccc1CNC(=O)C1CCN(c2nc3ccc(C)cc3[nH]2)CC1 -6.94%, CCc1ccc(CNC(=O)CCCn2ccc3cc(S(=O)(=O)N4CCCC4)ccc32)cc1 -27.3%, CCOc1ccc(CCNC(=O)c2cc3c(-c4ccccc4F)nn(C)c3s2)cc1 -15.9%, COc1ccc(-c2cc(-c3ccc(C)cc3)nc3c2COc2ccccc2-3)cc1 -4.3%, CCC(Cn1nnc2ccccc2c1=O)NC(=O)Nc1ccccc1OC (centres undefined) -7.27%, Cc1ccc(S(=O)(=O)c2nc(-c3ccc(F)cc3)oc2SCC(=O)NC2CCCCC2)cc1 -18%, C[C@]12CCC(=O)C=C1CC[C@@H]1[C@H]2[C@@H](O)C[C@@]2(C)[C@H]1CC[C@]2(O)C(=O)CO -12.5%, CCS(=O)(=O)N1CCc2cc(C(=O)NCc3ccccc3OC)ccc21 -17.8%, CCOc1ccc(CCNC(=O)C2CCCN(S(=O)(=O)N(C)c3ccc(F)cc3)C2)cc1 (centres undefined) -41.3%, COc1cccc(NC(=O)C2CCC(CNS(=O)(=O)c3ccc4c(c3)CCCC(=O)N4)CC2)c1 (centres undefined) -10.2%, CCn1cc(CNC(=O)c2cc(-c3ccc(C)cc3)nc3ccc(Br)cc23)c(C)n1 -5.93%, Cc1ccccc1-c1nc2scc(CCNC(=O)c3ccco3)n2n1 -25.9%, COc1ccc(NC(=O)CN2C(=O)COc3ccc(S(=O)(=O)N4CCOCC4)cc32)cc1 6.47%, O=C(NCc1ccccc1)C(=O)Nc1c2c(nn1-c1ccc(F)cc1)CSC2 -17.4%, COc1cccc(NC(=O)C2CCN(c3ccc(Sc4ccc(C)cc4)nn3)CC2)c1 -24.5%, Clc1ccccc1OCCSc1nnc(-c2cccs2)o1 5.25%, O=C(CSc1nc(=O)n(Cc2ccco2)c2c1CCC2)NCc1ccccc1 -7.46%, CCc1ccc2oc(-c3ccc(C)c(NC(=O)/C=C/c4ccco4)c3)nc2c1 0.939%, Cc1sc2ncn(CC(=O)N3CCN(c4ccccc4F)CC3)c(=O)c2c1S(=O)(=O)N1CCC(C)CC1 -0.481%, Cc1cccc(OCCSc2nnc(-c3cccs3)o2)c1 -5.85% [at 11.5 µM, percent change from vehicle, -100% = no light], CCOC(=O)c1ccc(NC(=O)c2cnn3c(=O)c4c(n(CC)c23)CCN(Cc2ccc(OC)cc2)C4)cc1 -12.6%, Cc1cn2c(=O)cc(COC(=O)c3ccc(NC(=O)c4ccc(F)cc4)cc3)nc2s1 -29%, CC1CCN(S(=O)(=O)N2CCC(C(=O)NCc3ccccc3Cl)CC2)CC1 -31.2%, COC(=O)c1ccc(Nc2ncnc3c2cnn3C)cc1 2.24%, COc1ccc(C2c3[nH]c4ccccc4c3CCN2C(=O)CCC2CCCC2)cc1 (centres undefined) -33.1%, COc1ccc(CNC(=O)Cc2c(C)c3cc4c(C)coc4cc3oc2=O)cc1OC -5.92%, CC(Sc1nccn1C)C(=O)Nc1ccccc1C#N (centres undefined) 5.58%, CCN(CC)c1ccc(NC(=O)c2cc(C)nc3c2c(C)nn3-c2ccc(C)cc2)c(C)c1 -22.4%, COc1ccc(-c2nc3scc(CCNS(=O)(=O)c4ccc(Oc5ccccc5)cc4)n3n2)cc1OC -24.4%, Cc1ccsc1CCN1C(=O)N(c2ccccc2)C(=O)C1CC(=O)Nc1ccc(Cl)cc1 (centres undefined) -26.1%, CCN(CC)C(=O)c1sc2c(c1C)c(=O)n(-c1ccc(C)c(C)c1)c(=O)n2Cc1cc(=O)n2ccccc2n1 -17.5%, OCCn1cc(-c2cnc3nnn(Cc4ccc5ncccc5c4)c3n2)cn1 4.92%, Cc1ccc2sc(N(Cc3cccnc3)C(=O)CCS(=O)(=O)c3ccccc3)nc2c1C -17.7%, COc1ccc(N2CCN(C(=O)CSc3nc(-c4ccc(C(C)C)cc4)no3)CC2)cc1 -54.8%, O=C(CNC(=O)c1ccccc1)OCc1cc(=O)n2nc(C3CCCCC3)sc2n1 3.89%, CCN(CC)C(=O)c1sc2c(c1C)c(=O)n(Cc1ccccc1)c(=O)n2Cc1ccccc1C -33.6%, COc1ccc(CCNC(=O)c2ccc3c(c2)CCN3S(C)(=O)=O)cc1OC -15.2%, Cc1nc(-c2ccc(S(=O)(=O)Nc3cc(Cl)ccc3C)cc2)co1 -21.1%, COc1ccc(Cn2cc(S(=O)(=O)c3ccc(C)cc3)c(=O)c3cc(F)ccc32)cc1 0%, COc1ccc2c(c1)c(=O)c(C(=O)c1ccccc1)cn2CC(=O)Nc1ccc2c(c1)OCO2 -28.1%, CCOc1ccc(NC(=O)c2oc3ccccc3c2NC(=O)COc2cccc(OC)c2)cc1 7.17%, Cc1cccc(CN2C(=O)c3ccccc3Sc3ccc(C(=O)NCc4ccco4)cc32)c1 -28%, CCS(=O)(=O)c1ncc(Cl)c(C(=O)N2CCN(c3ccc(OC)cc3)CC2)n1 -94.8%, O=c1c2ccccc2nc(/C=C/c2cccc3ccccc23)n1-c1ccc(F)cc1F -11.9%, NS(=O)(=O)c1ccc(CCNC(=O)C2CCN(c3ncnc4c3nc3n4CCCCC3)CC2)cc1 1.01%, Cc1ccc(CNC(=O)CCc2cn(C)c3ccccc23)cc1 -9.79%, CCC(CC)C(=O)Nc1nnc(S(=O)(=O)N2CCCCCC2)s1 -22.7%, CCC(Sc1nc2c(sc3ccccc32)c(=O)n1CCc1ccc(OC)c(OC)c1)C(=O)N(CC)CC (centres undefined) -50.4%, CCOc1ccc(NC(=O)CSC2=Nc3ccccc3C3=NC(CC(=O)NCc4cccs4)C(=O)N23)cc1 (centres undefined) -5.6%, COc1cc(-c2cc(OC)c3c(C)oc(C)c3c(=O)c2)ccc1OC(=O)c1ccc(C)cc1 -16.7%, O=C(CSc1n[nH]c(-c2ccccc2Cl)n1)NCCCc1ccccc1 -4.5%, Cc1ccc(-c2cn3c(n2)sc2cc(C(=O)NCCCN4CCCCCC4)ccc23)cc1 -2.57%, CCCN(CCC)C(=O)c1cc2c(=O)n3cccc(C)c3nc2s1 -5%, CC1=C(c2ccc(C)c(C)c2)S(=O)(=O)N=C1N1CCC(C(=O)NC(C)c2ccccc2)CC1 (centres undefined) -24.5%, CCc1ccc2oc(C(=O)N(Cc3ccc(N(C)C)cc3)Cc3ccco3)c(C)c2c1 -22.6%, CC(CCc1ccccc1)NC(=O)Cn1c(=O)nc(-c2ccccc2)c2cc(Cl)ccc21 (centres undefined) 17.1%, O=C1c2ccccc2-c2onc3c(N4CCN(C5CCCCC5)CC4)cc(NCCO)c1c23 -14.1%, O=C(O)c1ccccc1OP(=O)(O)O -7.18%, CC(=O)c1cccc(NC(=O)C2CCN(c3ncnc4c3nc3n4CCCCC3)CC2)c1 -18.9%, Clc1ccc(CN2CCN(c3ncnc4sc5c(c34)CCCC5)CC2)cc1Cl -20.9%, c1cc(N[C@@H]2CCNC2)nc(-c2cnc3ccc(-c4cn[nH]c4)cn23)c1 -33.1%, COc1ccc(CNC(=O)Cc2c(C(=O)O)c(C)cn2C)cc1 -8.13%, Cc1ncc([N+](=O)[O-])n1CC(C)O (centres undefined), O=C(NCc1ccc(F)cc1Cl)c1cc(=O)[nH]c2ccc(S(=O)(=O)N3CCCCC3)cc12 -16.3%, COc1ccc(-c2nc3scc(CCNS(=O)(=O)c4ccc5c(c4)OCCO5)n3n2)cc1OC 0.0334%, Cc1c(-c2ccccc2)c(=O)oc2ccc(OC(=O)N3CCOCC3)cc12 -9.65%, CCOc1ccc(C(=O)Nc2c(C(=O)Nc3ccccc3OC)oc3ccccc23)cc1OCC 16%, Cc1cc(C)cc(OCCSc2nc3ccc(NC(=O)c4cccs4)cc3s2)c1 -30.9%, O=C(Cn1cc(C(=O)C2CCCCC2)c2ccccc21)Nc1ccccc1Cl -33.7%
